Reference: PubChem BioAssay AID686979 (National Center for Advancing Translational Sciences (NCATS), 2013)
Screen size: about 420,000 compounds; about 50,000 (12%) were called active. The inconclusive results got no clear call from the source; some entries with a clear call stand among them for comparison. The call rests on the fitted dose curve; in most records, active means well fitted inhibition curve with a large enough effect; inconclusive means small, poorly fitted or top-dose-only effect; inactive means flat fitted curve, though single readings scatter. No potency is given beside an inconclusive call; the fits are too rough.

Assay: qHTS for Inhibitors of human tyrosyl-DNA phosphodiesterase 1 (TDP1): qHTS in cells in presence of CPT; further: nearly all actives have a fitted effect of over 55% in size
Conditions: chicken DT40 Tdp1-/-;hTDP1 cells + 20 nM CPT, ATP luminescence, 48 h; activity change, negative = growth inhibition: at 46.2 µM (top of the series) unless noted
Method in brief: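 Cell growth measured by CellTiter-Glo luminescence after a minimum 48 h, 37 C compound exposure with 20 nM CPT in Tdp1-knockout DT40 cells stably expressing hTDP1, seeded 400/well; qHTS titration format.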
On the % scale 0 is the no-effect control and ±100 the full control effect; potency means the concentration at half of the fitted maximal effect; tags describe the fitted curve by direction and shape.

Row | Structure (SMILES) | Potency | activity change, negative = growth inhibition
1 | CCOc1ccc(NC(=O)c2oc3ccccc3c2NC(=O)c2ccc(OC)cc2OC)cc1 | active: 23.1 µM | –
2 | O=C(N/N=C/c1cccc([N+](=O)[O-])c1)c1cccc2cc[nH]c12 | – | inactive: -11.9%
3 | O=C(COC(=O)C1COc2ccccc2O1)c1ccccc1 (configuration not stated) | – | inactive: -6.08%
4 | Cc1cc(C(=O)Nc2ccncc2)ccc1[N+](=O)[O-] | inconclusive [inhibitor, single point] | –
5 | COc1cc(CNCCSc2nnnn2C)cc(Cl)c1OCc1ccccc1 | inconclusive [inhibitor, single point] | –
6 | COc1cc(OC)c2c(=O)c(O)c(-c3ccc(OC)c(OC)c3)oc2c1 | inconclusive [inhibitor, partial curve] | –
7 | Cc1ccc2c(c1)CCCN2CC(=O)Nc1cccc(S(=O)(=O)N2CCCC2)c1 | inconclusive [inhibitor, single point] | –
8 | CSc1ncc(CN2CCc3c([nH]c4ccccc34)C2c2cccc(C)n2)cn1 (configuration not stated) | inconclusive [inhibitor, single point] | –
9 | CCOC(=O)c1ccccc1NC(=O)CN(c1ccccc1C)S(C)(=O)=O | inconclusive [inhibitor, partial curve] | –
10 | O=C(NCc1ccccc1Cl)C1CCN(S(=O)(=O)c2ccc(N3CCCC3=O)cc2)CC1 | active: 16.4 µM | –
11 | CCn1c(C)c(C(=O)c2ccccc2)c(C#N)c1C(=O)O | inconclusive [inhibitor, partial curve, poor fit] | –
12 | CCOc1cc(/C=C(\CC(=O)O)c2nc3ccccc3s2)ccc1OCC(=O)Nc1cccc(C(F)(F)F)c1 | inconclusive [inhibitor, partial curve] | –
13 | COc1cccc(NC(=O)Nc2nnc(N3CCCCC3C)s2)c1 (configuration not stated) | inconclusive [inhibitor, single point] | –
14 | Fc1ccccc1N1CCN(c2nccn3nc(-c4ccc(Br)cc4)cc23)CC1 | – | inactive: -1.2%
15 | CC(=O)N1CCN(c2ccccc2NC(=O)c2cc3ccccc3o2)CC1 | inconclusive [inhibitor, single point] | –
16 | O=C(O)COc1ccc(-c2nc(-c3ccccc3)c(-c3ccccc3)[nH]2)cc1 | – | inactive: -13.3%
17 | N#CC(C#N)=c1ccc2c(c1)N1C3=C(CCCC3)CC3CCCCC31N=2 (configuration not stated) | inconclusive [inhibitor, single point] | –
18 | CCc1cc(C(c2ccccc2OC)N2CCOCC2)c(NC(=O)c2ccccc2)s1 (configuration not stated) | inconclusive [inhibitor, single point] | –
19 | O=C(CCN1CCCCC1)NCC1OCCc2ccccc21 (configuration not stated) | – | inactive: -15%
20 | O=C(CC1(O)C(=O)N(Cc2ccccc2Cl)c2ccccc21)c1ccco1 (configuration not stated) | active: 3.26 µM | –
21 | O=C(N/N=C/c1ccccc1O)/C(=C/c1ccccc1)CCO | active: 3.26 µM | –
22 | Cc1ccc(C2CC(c3cccc(C)c3)n3nc(N)nc3N2)cc1 (configuration not stated) | – | inactive: -24.1%
23 | COC(=O)c1sc(-c2ccc(C(C)(C)C)cc2)cc1NC(=O)/C=C/C(=O)O | active: 4.61 µM | –
24 | COc1ccc(/C=N/NC(=O)c2cccc(NC(=O)c3ccccc3Cl)c2)cc1 | active: 3.66 µM | –

Row | Structure (SMILES) | Potency | activity change, negative = growth inhibition
25 | CCc1ccc2[nH]c(=O)c(CN(Cc3ccccc3)C(=O)Nc3ccccc3OC)cc2c1 | inconclusive [inhibitor, single point] | –
26 | Cc1ccc(OCC(=O)Nc2ccc(S(=O)(=O)N3CCCCC3)cc2)c([N+](=O)[O-])n1 | inconclusive [inhibitor, partial curve] | –
27 | CCCCC(=O)N/N=C/c1ccc(-c2ccc([N+](=O)[O-])cc2)o1 | inconclusive [inhibitor, single point] | –
28 | C#CCn1c(S(=O)(=O)Cc2ccc(OC)cc2)nc(-c2ccccc2)c1-c1ccccc1 | inconclusive [inhibitor, single point] | –
29 | COc1ccc(NC(=O)c2ccco2)cc1NC(=O)c1ccccc1F | – | inactive: -7.43%
30 | COc1cc(/C=N\NC(=O)c2nonc2N)c(OC)cc1Br | inconclusive [inhibitor, single point] | –
31 | CCCCNc1nc2ccccc2c2nc(-c3ccccc3)nn12 | inconclusive [inhibitor, single point] | –
32 | COc1ccc(C(CNC(=O)c2ccc(OC)c(S(=O)(=O)N3CCCC3)c2)N2CCCC2)cc1 (configuration not stated) | – | inactive: -4.15%
33 | COc1cc(C(=O)NNC(=O)c2nn(C)c(=O)c3ccccc23)cc(OC)c1OC | – | inactive: -5.51%
34 | CCCCN(CC)CCNC(=O)c1cc2c(=O)n(CC)c3ccccc3c2s1 | active: 16.4 µM | –
35 | O=C(O)c1cc2nc(-c3ccccc3)cc(C(F)(F)F)n2n1 | inconclusive [inhibitor, single point] | –
36 | COc1cccc2c(=O)c3ccccc3oc12 | inactive | –
37 | O=C(Cc1ccc(-n2c(=O)c3sccc3n(CC(=O)Nc3ccccc3F)c2=O)cc1)NCc1ccco1 | – | inactive: 5.69%
38 | CC(C)CC1NC(=O)c2cc3ccccc3cc2-n2c1nc1cc(Cl)ccc1c2=O (configuration not stated) | inconclusive [inhibitor, partial curve, poor fit] | –
39 | COc1cccc(OC)c1OCCCOc1ccc([N+](=O)[O-])cc1Cl | inconclusive [inhibitor, single point] | –
40 | CCCc1cc(=O)[nH]c(-n2[nH]c3c(c2=O)CCCC3)n1 | active: 16.4 µM | –
41 | C=CCNc1nc(Cl)nc(Nc2ccc(OC)cc2OC)n1 | – | inconclusive: -36.3% [inhibitor]
42 | CCCC(=O)NC(=S)Nc1ccc(N2CCN(C(=O)c3cccs3)CC2)cc1 | active: 16.4 µM | –
43 | Cc1ccc2c(c1)[C@H]1[C@H](CO2)[C@H](c2ccccc2)[C@]2(C)C(=O)N(Cc3ccccc3)CC(=O)N12 | inconclusive [inhibitor, single point] | –
44 | CCN(Cc1ccccc1)c1ccc(/C=N/NC(=S)NC(C)C)cc1 | active: 2.59 µM | –
45 | C/C=C1\C2C=C(C)CC1(N)c1ccc(=O)[nH]c1C2 (configuration not stated) | – | inactive: -4.72% [at 92.5 µM]
46 | CCOC(=O)Cc1c(C)nc2c(-c3ccccc3)c[nH]n2c1=O | active: 18.4 µM | –
47 | CCCCNCCOc1ccccc1-c1ccccc1 | inconclusive [inhibitor, single point] | –
48 | Cc1o[nH]c(=O)c1CC[C@H](N)C(=O)O | – | inactive: 7.93%

Row | Structure (SMILES) | Potency | activity change, negative = growth inhibition
49 | COc1ccc(-c2cc(C(=O)N(C)CCc3ccc(OC)c(OC)c3)c3ccccc3n2)cc1 | active: 14.6 µM | –
50 | Cc1ccc(S(=O)(=O)N2CCN(C(=O)c3sccc3-c3ccccc3)CC2)cc1 | inconclusive [inhibitor, single point] | –
51 | CCCCCCCCCCCCCCCC[n+]1ccc(C)cc1 | active: 0.891 µM | –
52 | CCc1cc([N+](=O)[O-])cc(CC)c1N | – | inactive: -0.803%
53 | C[C@@H]1CCCCO[C@H](CN(C)C(=O)c2ccncc2)[C@H](C)CN([C@@H](C)CO)C(=O)c2cc(NC(=O)c3ccccc3)ccc2O1 | – | inactive: -3.73%
54 | CN(C)c1ccc(/C=C/c2c(Cl)cnc3ccccc23)cc1 | active: 11.2 µM | –
55 | CC1=C(C(=O)N(C(C)C)C(C)C)CC(CC(=O)NCCCCc2ccccc2)C(=O)N1Cc1ccc(F)cc1 (configuration not stated) | inconclusive [inhibitor, single point] | –
56 | C/C(=C\C(=O)c1ccc(Br)cc1)NNC(=O)c1ccccc1 | inconclusive [inhibitor, partial curve, poor fit] | –
57 | CCCCNC(C(=O)Nc1cccc(S(=O)(=O)N2CCOCC2)c1)c1ccccc1 (configuration not stated) | inconclusive [inhibitor, single point] | –
58 | COc1ccc(C(c2c(NC(=O)c3ccco3)sc(C)c2C)N2CCOCC2)cc1OC (configuration not stated) | – | inactive: -28.2%
59 | C[C@H](CO)N1C[C@H](C)[C@@H](CN(C)S(=O)(=O)c2ccccc2)Oc2c(NC(=O)NC3CCCCC3)cccc2C1=O | active: 18.4 µM | –
60 | N#CC(C#N)=C1NC2(CCCC2)Cc2ccccc21 | inconclusive [inhibitor, single point] | –
61 | CCCCN(C)CCn1c(=S)[nH]c2ccc(N3CCOCC3)cc2c1=O | inconclusive [inhibitor, single point] | –
62 | COc1cc2c(C(=O)N3CCN(C)CC3)c(CSc3ccccc3)n(C)c2cc1Br | inconclusive [inhibitor, single point] | –
63 | COc1cccc(CCc2nnc(CCC(=O)NCCC3CCCCO3)o2)c1 (configuration not stated) | – | inactive: 10.9%
64 | Cc1ccc(C(NC(=O)c2ccccc2)C(Cl)(Cl)Cl)cc1 (configuration not stated) | active: 14.6 µM | –
65 | COc1ccc(NC(=O)Cc2coc3ccc4ccccc4c23)cc1S(=O)(=O)N1CCOCC1 | inconclusive [inhibitor, single point] | –
66 | COc1ccccc1Nc1nc(N)nc(CN2CCc3ccccc3C2)n1 | inconclusive [inhibitor, single point] | –
67 | CN(CC(=O)Nc1ccc(Cl)cc1)CC(=O)N1CCc2ccccc21 | inconclusive [inhibitor, single point] | –
68 | CC(C)(C)C(=O)N1CCN(CCN2C(=O)c3cccc4cccc(c34)C2=O)CC1 | – | inactive: -23.4%
69 | O=C(O)CNC(=O)c1cccc(C(F)(F)F)c1 | inconclusive [inhibitor, single point] | –
70 | Cc1cccc(NS(=O)(=O)c2ccc(C)c(C(=O)NC3CCN(Cc4ccccc4)CC3)c2)c1 | inconclusive [inhibitor, partial curve, poor fit] | –
71 | CN(C(=O)COC(=O)Cc1ccc(Br)cc1)c1c(N)n(Cc2ccccc2)c(=O)[nH]c1=O | – | inactive: -26.9%
72 | C#CCN1C=C(C(=O)OCC)C(C)N(Cc2ccccc2I)S1(=O)=O (configuration not stated) | active: 13 µM | –
